Here are results for 45 compounds from article PMC4336329 (PLoS ONE, 2015).

Out of some 310,000 compounds screened, about 14,000 (4.5%) showed an effect of 50% or more. Effects have a minus sign here. Some of the results follow.
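Further: peak tail current of the secondary pulse compared with the same well before compound.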

The target of the test is human ether-à-go-go-related gene (hERG) potassium channel (human, UniProt Q12809). The experiment in a line: primary screen, population patch clamp on CHO cells stably expressing hERG.
Sequence of human ether-à-go-go-related gene (hERG) potassium channel (Q12809 whole entry, looked up): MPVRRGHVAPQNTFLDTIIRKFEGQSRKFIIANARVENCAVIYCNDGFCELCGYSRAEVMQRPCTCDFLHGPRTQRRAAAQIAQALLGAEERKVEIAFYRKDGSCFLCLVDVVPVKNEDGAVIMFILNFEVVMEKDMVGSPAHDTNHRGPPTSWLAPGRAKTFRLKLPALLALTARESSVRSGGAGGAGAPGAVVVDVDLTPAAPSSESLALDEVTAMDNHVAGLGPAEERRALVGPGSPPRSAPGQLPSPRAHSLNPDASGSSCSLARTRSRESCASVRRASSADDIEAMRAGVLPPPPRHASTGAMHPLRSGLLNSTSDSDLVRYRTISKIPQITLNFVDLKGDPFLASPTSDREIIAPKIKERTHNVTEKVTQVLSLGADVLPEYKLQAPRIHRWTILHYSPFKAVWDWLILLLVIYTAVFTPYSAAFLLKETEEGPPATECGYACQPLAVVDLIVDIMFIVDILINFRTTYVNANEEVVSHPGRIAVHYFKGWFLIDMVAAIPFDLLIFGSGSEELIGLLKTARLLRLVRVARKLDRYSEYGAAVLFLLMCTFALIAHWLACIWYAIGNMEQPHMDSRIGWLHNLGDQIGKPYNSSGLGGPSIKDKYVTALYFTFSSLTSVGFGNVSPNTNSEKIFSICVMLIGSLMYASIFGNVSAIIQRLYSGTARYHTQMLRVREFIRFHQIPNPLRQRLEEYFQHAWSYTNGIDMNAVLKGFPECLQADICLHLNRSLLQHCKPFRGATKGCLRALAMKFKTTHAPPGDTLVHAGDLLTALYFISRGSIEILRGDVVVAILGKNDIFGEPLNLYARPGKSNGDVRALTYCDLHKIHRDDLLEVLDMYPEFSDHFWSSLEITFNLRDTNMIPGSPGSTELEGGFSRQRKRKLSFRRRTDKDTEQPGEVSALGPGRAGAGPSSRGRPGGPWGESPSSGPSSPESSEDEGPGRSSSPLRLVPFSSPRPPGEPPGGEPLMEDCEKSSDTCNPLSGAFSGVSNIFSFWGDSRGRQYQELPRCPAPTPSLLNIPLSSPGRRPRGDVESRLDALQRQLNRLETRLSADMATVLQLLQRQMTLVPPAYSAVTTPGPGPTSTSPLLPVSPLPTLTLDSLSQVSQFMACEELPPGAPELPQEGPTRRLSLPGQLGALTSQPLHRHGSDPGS
For the compound `O=C(NCc1cccnc1)c1cccn2c(=O)c3sccc3nc12`, the “hERG current change (%, negative = inhibition) at 10uM” value was -63.2%. Take `Cc1ccccc1Cn1ccc(NC(=O)c2cnn3c(C(F)(F)F)cc(-c4ccco4)nc23)n1`: the “hERG current change (%, negative = inhibition) at 10uM” value was found to be 15.1%. As for `O=C(Cc1cccc(C(F)(F)F)c1)OCN1C(=O)c2ccccc2C1=O`, the “hERG current change (%, negative = inhibition) at 10uM” value turned out to be 16.8%. As for `COc1cc(NS(=O)(=O)c2ccc(NC(=S)NC(=O)C3CCCC3)cc2)nc(OC)n1`, the “hERG current change (%, negative = inhibition) at 10uM” value is -15.1%. Turning to `NS(=O)(=O)c1ccc(NC(=O)CCCC(=O)O)cc1`, the “hERG current change (%, negative = inhibition) at 10uM” value is recorded as 7.58%. The figure for `Cl.c1ccc2c(N3CCNCC3)cccc2c1` is 10.9%.

Turning to `O=C(Oc1ccccc1N1C(=O)C2CCCCC2C1=O)c1ccc(Cl)cc1` (stereo not drawn), the “hERG current change (%, negative = inhibition) at 10uM” value is given as -7%. For `O=c1c2ccccc2nc(SCc2cn3ccsc3n2)n1-c1ccc(F)cc1`, the “hERG current change (%, negative = inhibition) at 10uM” value was 0.658%.

Consider `COc1ccc(CN(C(=O)c2ccco2)c2ccccc2)cc1`, for which the “hERG current change (%, negative = inhibition) at 10uM” value is reported as -18.2%. Turning to `Nc1nc(SCc2ccccc2Cl)n[nH]1`, the “hERG current change (%, negative = inhibition) at 10uM” value is recorded as 21.5%. On to `CN(C)c1cc(-c2ccc(Cl)cc2)oc(=O)c1Cl`, for which the “hERG current change (%, negative = inhibition) at 10uM” value is -6.67%. Consider `CCOc1cc(/C=C(\C#N)C(=O)NCC2CCCO2)ccc1OCC(N)=O` (stereo not drawn), for which the “hERG current change (%, negative = inhibition) at 10uM” value worked out at 18.9%. For the compound `O=C(CSc1nnc(-c2cccs2)n1Cc1ccco1)c1ccc2c(c1)OCO2`, the “hERG current change (%, negative = inhibition) at 10uM” value is listed as -40%. The figure for `CCc1nn(CC(=O)NCCCc2ccccc2)c(=O)c2cc3cc(F)ccc3n12` is 1.58%; for `COc1ccc(CC(=O)NCC2CCCN(Cc3cccc(SC)c3)C2)cc1` (stereo not drawn) it is -34.6%. The figure for `Cc1cccc(N2C(=O)SC(N(C)c3ccccc3)C2=O)c1` (stereo not drawn) is 0.296%. Consider `COC(=O)/C=C1/S/C(=N/NC(=O)c2ccc(Cl)cc2Cl)NC1=O`, for which the “hERG current change (%, negative = inhibition) at 10uM” value was -9.77%.

Consider `COCCN1C(=O)N(c2cccc(OC)c2)C(=O)C1CC(=O)Nc1ccc(OC)cc1` (stereo not drawn), for which the “hERG current change (%, negative = inhibition) at 10uM” value is -9.92%.

With `COc1ccc(N(CC(=O)NN=C2CCCC2)S(=O)(=O)c2ccccc2)cc1Cl`, the “hERG current change (%, negative = inhibition) at 10uM” value was found to be 15.2%. Consider `CC(O)CNc1nc2c(c(=O)n(C)c(=O)n2C)n1CCc1ccccc1` (stereo not drawn), for which the “hERG current change (%, negative = inhibition) at 10uM” value was found to be 16.5%. Turning to `Cc1ccc(CNC(=O)C2CC(c3cccc([N+](=O)[O-])c3)=NO2)cc1` (stereo not drawn), the “hERG current change (%, negative = inhibition) at 10uM” value was -17.1%. With `CCc1ccc2oc(-c3cc(N)ccc3O)nc2c1`, the “hERG current change (%, negative = inhibition) at 10uM” value was 0.826%. For the compound `Nc1nnc(CC(=O)N/N=C/c2ccccc2OCc2ccccc2F)s1`, the “hERG current change (%, negative = inhibition) at 10uM” value came out at 6.19%. `O=C(COC(=O)c1cccs1)Nc1ccccc1Cl`: the “hERG current change (%, negative = inhibition) at 10uM” value is on record as 15.6%. In the case of `Cc1cc(C(=O)C(=O)O)c(C)n1-c1ccc(Cl)c(Cl)c1`, the “hERG current change (%, negative = inhibition) at 10uM” value came to 21.6%. The figure for `COc1ccc(NC(=O)Nc2ccc(Cc3ccncc3)cc2)cc1OC` is 11.6%; for `CC(=O)c1sc(NC(=O)CN2C(=O)CCC2=O)nc1C` it is 6.48%; for `O=C(Cn1cnc2c(cnn2-c2ccc(Cl)cc2)c1=O)N1CCN(c2ccccc2)CC1` it is 8.46%. Consider `O=C(COc1ccccc1)Nc1nnc(C23CC4CC(CC(C4)C2)C3)s1`, for which the “hERG current change (%, negative = inhibition) at 10uM” value is 21.7%. For the compound `COc1cc(/C=C/C(=O)c2ccc3c(c2)OCCO3)cc(OC)c1OC`, the “hERG current change (%, negative = inhibition) at 10uM” value was found to be 15.7%.

Take `Cc1cccc(/C=C2/S/C(=N/N=C3\CC4CCC3(C)C4(C)C)NC2=O)c1` (stereo not drawn): the “hERG current change (%, negative = inhibition) at 10uM” value is recorded as -3.41%. Turning to `CC(=O)N1CCc2cc(S(=O)(=O)NCC(=O)NCc3ccc(Cl)cc3)ccc21`, the “hERG current change (%, negative = inhibition) at 10uM” value is -0.999%. Take `Cc1ccc(N2C(=O)CC(=O)NC2=O)cc1`: the “hERG current change (%, negative = inhibition) at 10uM” value is on record as -16.9%. For the compound `CCCCc1nc(NCCN)c(C#N)c2c1CSC(C)(C)C2`, the “hERG current change (%, negative = inhibition) at 10uM” value is reported as -38.3%. Regarding `O=C1/C(=C/c2ccc(O)cc2)CCc2ccc([N+](=O)[O-])cc21`, the “hERG current change (%, negative = inhibition) at 10uM” value came out at 3.88%. Turning to `Cl.O=C(CN1CCC(n2nnc3cc(F)ccc32)CC1)NCc1ccco1`, the “hERG current change (%, negative = inhibition) at 10uM” value is given as -35.6%. In the case of `COc1ccc(CN2CCN(S(=O)(=O)c3ccc(C)cc3)CC2)cc1Br`, the “hERG current change (%, negative = inhibition) at 10uM” value is given as -5.37%.

`N#CC1=C(SCc2ccccc2)NC(=O)CC1c1ccco1` (stereo not drawn): the “hERG current change (%, negative = inhibition) at 10uM” value is 10.9%. Turning to `CCC(CC)C(=O)c1c[nH]c(C(=O)N2CCN(c3ccccc3)CC2)c1`, the “hERG current change (%, negative = inhibition) at 10uM” value came out at 20.4%. With `COc1ccc(C2OC(=O)CC2C(=O)NCc2ccccc2Cl)cc1OC` (stereo not drawn), the “hERG current change (%, negative = inhibition) at 10uM” value is given as 12.5%. Turning to `C=CCNC(=O)c1ccc(OC)cc1`, the “hERG current change (%, negative = inhibition) at 10uM” value was -12%. For the compound `CCOC(=O)/C=C1\Nc2ccccc2OC1=O`, the “hERG current change (%, negative = inhibition) at 10uM” value was found to be 24.5%. In the case of `Cc1cccc(NC(=O)c2cc(-c3cccnc3)nc3c(C)cccc23)n1`, the “hERG current change (%, negative = inhibition) at 10uM” value is reported as 5.01%. Turning to `CCOc1cc(/C=C/c2nc3ccccc3c(=O)[nH]2)cc(Br)c1OC`, the “hERG current change (%, negative = inhibition) at 10uM” value amounted to 18.9%.

With `CCCC(=O)Nc1ccc2nc(C)n(Cc3ccccc3Cl)c(=O)c2c1`, the “hERG current change (%, negative = inhibition) at 10uM” value was determined as 2.59%.
